Where “and” joins values, the source holds several entries; their conditions need not be identical. Equal entries are not always repeated. The full ranking holds about 2,900 compounds; the median of “IRF Lucia reporter activity, fold change vs agonist alone” is about 0.9, and the highest 2% start at about 2.8. Some of the results follow.
What was measured:
[1] = system: RAW-Dual; test: IRF Lucia reporter activity, fold change vs agonist alone; cytotoxicity flag (confluency mask): not cytotoxic; higher = enhanced IRF activity
Procedure, shortened: (§1)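 Reporter activity is given as fold change relative to agonist-alone wells. To measure it, 50 nL of library stock was pin-tooled onto RAW-Dual macrophages (50,000 cells/well, DMEM, 384-well plates), a PRR agonist followed 1 h later, and cells stayed at 37 °C, 5% CO2. Twenty hours on, supernatant was assayed for IRF (QuantiLuc luminescence) and NF-κB (QuantiBlue, 620 nm absorbance), and wells under 70% of agonist-control IncuCyte confluency in both mask sets were marked cytotoxic.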

[2] = system: RAW-Dual; test: IRF Lucia reporter activity, fold change vs agonist alone; cytotoxicity flag (confluency mask): cytotoxic (confluency <70% of control); higher = enhanced IRF activity
Procedure, shortened: as §1

[3] = system: RAW-Dual; test: IRF Lucia reporter activity, fold change vs agonist alone; higher = enhanced IRF activity; conditions: agonist: MPLA (TLR4) […]
Procedure, shortened: as §1

[4] = agonist: 3'3'-cGAMP (STING) 10 ug/mL
[5] = library stock concentration (final ~1000-fold dilution): 10 mM, cytotoxicity flag (confluency mask): not cytotoxic
[6] = library stock concentration (final ~1000-fold dilution): 2 mM, cytotoxicity flag (confluency mask): not cytotoxic

## COC1(c2sc3c(N4CCOCC4)nc(-c4cnc(N)nc4)nc3c2C)COC1 (library stock concentration (final ~1000-fold dilution): 10 mM)
[1]; [4]
  IRF Lucia reporter activity: 0.61
[1]; agonist: LPS (TLR4) 0.1 ug/mL
  IRF Lucia reporter activity: 0.751

## COc1ccccc1OCCNCC(O)COc1cccc2[nH]c3ccccc3c12 (centres undefined) (library stock concentration (final ~1000-fold dilution): 10 mM)
[1]; [4]
  IRF Lucia reporter activity: 0.689 and 0.629
[1]; agonist: LPS (TLR4) 0.1 ug/mL
  IRF Lucia reporter activity: 1.88 and 1.19

## COc1cc2c(cc1OC)-c1cc3nc4ccccc4nc3n1C(C)(C)C2 (library stock concentration (final ~1000-fold dilution): 10 mM)
[2]; [4]
  IRF Lucia reporter activity: 0.239
[2]; agonist: LPS (TLR4) 0.1 ug/mL
  IRF Lucia reporter activity: 0.434

## COc1cc2c(cc1OC)-c1cc3nc4ccccc4nc3n1C(C)(C)C2
[3]; library stock concentration (final ~1000-fold dilution): 10 mM, cytotoxicity flag (confluency mask): cytotoxic (confluency <70% of control)
  IRF Lucia reporter activity: 0.191

## Oc1cc(O)c2c(c1)OC(c1ccc(O)c(O)c1)C(O)[C@H]2c1c(O)cc(O)c2c1OC(c1ccc(O)c(O)c1)C(O)C2 (some centres undefined) (library stock concentration (final ~1000-fold dilution): 10 mM)
[1]; [4]
  IRF Lucia reporter activity: 0.867
[1]; agonist: LPS (TLR4) 0.1 ug/mL
  IRF Lucia reporter activity: 1.27

## Nc1cccc(-c2cc3c(Oc4cccc(O)c4)ncnc3[nH]2)c1
[3]; [5]
  IRF Lucia reporter activity: 0.0799

## Nc1cccc(-c2cc3c(Oc4cccc(O)c4)ncnc3[nH]2)c1 (library stock concentration (final ~1000-fold dilution): 10 mM)
[1]; [4]
  IRF Lucia reporter activity: 0.138
[1]; agonist: LPS (TLR4) 0.1 ug/mL
  IRF Lucia reporter activity: 0.037

## COc1ccc(-n2nc(C(N)=O)c3c2C(=O)N(c2ccc(N4CCCCC4=O)cc2)CC3)cc1 (library stock concentration (final ~1000-fold dilution): 10 mM)
[1]; [4]
  IRF Lucia reporter activity: 1.03
[1]; agonist: LPS (TLR4) 0.1 ug/mL
  IRF Lucia reporter activity: 0.919

## COc1ccc(-n2nc(C(N)=O)c3c2C(=O)N(c2ccc(N4CCCCC4=O)cc2)CC3)cc1
[3]; [5]
  IRF Lucia reporter activity: 0.925

## COc1ccc(C(C)=O)c(O)c1 (library stock concentration (final ~1000-fold dilution): 10 mM)
[1]; [4]
  IRF Lucia reporter activity: 0.95
[1]; agonist: LPS (TLR4) 0.1 ug/mL
  IRF Lucia reporter activity: 1.02

## COc1ccc(C(C)=O)c(O)c1
[3]; [5]
  IRF Lucia reporter activity: 0.954

## COc1cc(OC)c(C=CS(=O)(=O)Cc2ccc(OC)c(NCC(=O)O)c2)c(OC)c1 (library stock concentration (final ~1000-fold dilution): 10 mM)
[1]; [4]
  IRF Lucia reporter activity: 0.203
[1]; agonist: LPS (TLR4) 0.1 ug/mL
  IRF Lucia reporter activity: 1.53

## COc1cc(OC)c(C=CS(=O)(=O)Cc2ccc(OC)c(NCC(=O)O)c2)c(OC)c1
[3]; [5]
  IRF Lucia reporter activity: 1.79

## COC1CC2CCC(C)C(O)(O2)C(=O)C(=O)N2CCCCC2C(=O)OC(C(C)CC2CCC(OC(=O)C(C)(CO)CO)C(OC)C2)CC(=O)C(C)C=C(C)C(O)C(OC)C(=O)C(C)CC(C)C=CC=CC=C1C (centres undefined)
[3]; [5]
  IRF Lucia reporter activity: 4.11

## COC1CC2CCC(C)C(O)(O2)C(=O)C(=O)N2CCCCC2C(=O)OC(C(C)CC2CCC(OC(=O)C(C)(CO)CO)C(OC)C2)CC(=O)C(C)C=C(C)C(O)C(OC)C(=O)C(C)CC(C)C=CC=CC=C1C (centres undefined) (library stock concentration (final ~1000-fold dilution): 10 mM)
[1]; [4]
  IRF Lucia reporter activity: 0.69
[1]; agonist: LPS (TLR4) 0.1 ug/mL
  IRF Lucia reporter activity: 2.98

## COc1cc(N2CCC(N3CCN(C)CC3)CC2)ccc1Nc1ncc(Cl)c(Nc2ccccc2S(=O)(=O)C(C)C)n1 (library stock concentration (final ~1000-fold dilution): 2 mM)
[1]; [4]
  IRF Lucia reporter activity: 0.131
[1]; agonist: LPS (TLR4) 0.1 ug/mL
  IRF Lucia reporter activity: 0.527

## COc1cc(N2CCC(N3CCN(C)CC3)CC2)ccc1Nc1ncc(Cl)c(Nc2ccccc2S(=O)(=O)C(C)C)n1
[3]; [6]
  IRF Lucia reporter activity: 0.851

## CC1CCc2cc(F)cc3c(=O)c(C(=O)O)cn1c23 (centres undefined)
[3]; [5]
  IRF Lucia reporter activity: 1.29

## CC1CCc2cc(F)cc3c(=O)c(C(=O)O)cn1c23 (centres undefined) (library stock concentration (final ~1000-fold dilution): 10 mM)
[1]; [4]
  IRF Lucia reporter activity: 1.05
[1]; agonist: LPS (TLR4) 0.1 ug/mL
  IRF Lucia reporter activity: 0.759

## CNC(=O)CN1CCC(Oc2cc3c(Nc4cccc(Cl)c4F)ncnc3cc2OC)CC1
[3]; [5]
  IRF Lucia reporter activity: 0.417

## CNC(=O)CN1CCC(Oc2cc3c(Nc4cccc(Cl)c4F)ncnc3cc2OC)CC1 (library stock concentration (final ~1000-fold dilution): 10 mM)
[1]; [4]
  IRF Lucia reporter activity: 0.308
[1]; agonist: LPS (TLR4) 0.1 ug/mL
  IRF Lucia reporter activity: 0.773

## CCCS(=O)(=O)Nc1ccc(F)c(C(=O)c2c[nH]c3ncc(Cl)cc23)c1F
[3]; [5]
  IRF Lucia reporter activity: 0.42

## CCCS(=O)(=O)Nc1ccc(F)c(C(=O)c2c[nH]c3ncc(Cl)cc23)c1F (library stock concentration (final ~1000-fold dilution): 10 mM)
[1]; [4]
  IRF Lucia reporter activity: 0.268
[1]; agonist: LPS (TLR4) 0.1 ug/mL
  IRF Lucia reporter activity: 0.377

## Nc1nc(N)nc(-c2cc(Cl)ccc2Cl)n1 (library stock concentration (final ~1000-fold dilution): 2 mM)
[1]; [4]
  IRF Lucia reporter activity: 0.925
[1]; agonist: LPS (TLR4) 0.1 ug/mL
  IRF Lucia reporter activity: 1.02

## Nc1nc(N)nc(-c2cc(Cl)ccc2Cl)n1
[3]; [6]
  IRF Lucia reporter activity: 1.23

## CCN1CCCC1CNC(=O)c1cc(S(=O)(=O)CC)c(N)cc1OC (centres undefined) (library stock concentration (final ~1000-fold dilution): 10 mM)
[1]; [4]
  IRF Lucia reporter activity: 0.951
[1]; agonist: LPS (TLR4) 0.1 ug/mL
  IRF Lucia reporter activity: 0.924

## CCN1CCCC1CNC(=O)c1cc(S(=O)(=O)CC)c(N)cc1OC (centres undefined)
[3]; [5]
  IRF Lucia reporter activity: 0.95

## CCCOc1ccc(CCc2nc3cc(-c4c(C)noc4C)ccc3n2CCN2CCOCC2)cc1.Cl (library stock concentration (final ~1000-fold dilution): 10 mM)
[1]; [4]
  IRF Lucia reporter activity: 0.403
[1]; agonist: LPS (TLR4) 0.1 ug/mL
  IRF Lucia reporter activity: 0.23

— the supplement of paper PMC10037445
